# Measurements from PubChem BioAssay AID504339 (National Center for Advancing Translational Sciences (NCATS), 2011).
# About 17,000 (4.4%) of roughly 390,000 compounds were called active. This list was built around the results that the source calls inconclusive (neither active nor inactive); the mix of calls is not that of the screen. The call rests on the fitted dose curve; in most records, active means well fitted inhibition curve with a large enough effect; inconclusive means small, poorly fitted or top-dose-only effect; inactive means no such curve, though single readings can be large or run the other way. Where the call is inconclusive, the potency comes from a doubtful curve fit.
# Biological target: Lysine-specific demethylase 4A (Homo sapiens) (UniProt O75164)
# Sequence of UniProt O75164 (O75164 whole entry, looked up, the tested form may be a part): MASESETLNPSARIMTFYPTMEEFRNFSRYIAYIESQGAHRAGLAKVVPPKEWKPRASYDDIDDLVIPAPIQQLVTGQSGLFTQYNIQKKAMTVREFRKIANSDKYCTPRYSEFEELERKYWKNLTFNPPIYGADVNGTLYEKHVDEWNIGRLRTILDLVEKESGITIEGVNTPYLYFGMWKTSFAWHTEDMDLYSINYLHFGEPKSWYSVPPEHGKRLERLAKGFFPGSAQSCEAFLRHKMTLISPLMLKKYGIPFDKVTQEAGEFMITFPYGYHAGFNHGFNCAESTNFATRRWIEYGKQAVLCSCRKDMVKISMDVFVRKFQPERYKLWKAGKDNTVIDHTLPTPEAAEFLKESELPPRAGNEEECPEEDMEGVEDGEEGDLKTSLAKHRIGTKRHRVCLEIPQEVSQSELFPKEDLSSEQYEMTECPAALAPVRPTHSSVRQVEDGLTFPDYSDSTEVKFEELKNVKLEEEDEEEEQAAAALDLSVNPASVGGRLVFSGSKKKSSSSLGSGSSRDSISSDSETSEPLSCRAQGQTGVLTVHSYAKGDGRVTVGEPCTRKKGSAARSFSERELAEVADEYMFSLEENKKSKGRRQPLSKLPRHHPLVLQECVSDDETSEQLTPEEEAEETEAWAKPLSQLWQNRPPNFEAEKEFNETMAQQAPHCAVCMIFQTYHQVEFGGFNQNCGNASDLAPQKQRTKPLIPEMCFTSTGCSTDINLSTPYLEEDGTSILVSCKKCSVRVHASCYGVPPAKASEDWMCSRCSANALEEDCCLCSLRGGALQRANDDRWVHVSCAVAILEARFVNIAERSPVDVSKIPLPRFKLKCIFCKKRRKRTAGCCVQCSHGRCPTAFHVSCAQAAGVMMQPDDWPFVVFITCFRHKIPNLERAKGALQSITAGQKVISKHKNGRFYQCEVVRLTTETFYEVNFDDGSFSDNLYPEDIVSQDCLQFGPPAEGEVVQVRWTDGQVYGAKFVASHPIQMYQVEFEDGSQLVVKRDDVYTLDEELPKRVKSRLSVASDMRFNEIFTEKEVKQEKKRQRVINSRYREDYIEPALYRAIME
# Assay: qHTS Assay for Inhibitors of JMJD2A-Tudor Domain; further: nearly all actives have a fitted effect of over 50% in size
# Settings: AlphaScreen JMJD2A-Tudor / H3K4me3 peptide binding; activity change, negative = inhibition: at 114 µM (top of the series)
# On the % scale 0 is the no-effect control and ±100 the full control effect; potency means the concentration at half of the fitted maximal effect; tags describe the fitted curve by direction and shape.
Structure (SMILES),Potency,"activity change, negative = inhibition"
Cc1cccc(NC(=O)c2cc([N+](=O)[O-])ccc2NCC2CCCO2)n1 (stereo not drawn),"inconclusive: 56.2 µM [inhibitor, partial curve, poor fit]",–
COc1ccccc1C(=O)NC1CCN(C(=S)NCCc2ccccc2)CC1,"inconclusive: 112 µM [inhibitor, partial curve, poor fit]",–
CC(=O)Nc1ccc(CN2CCCC(CO)(Cc3cccc(Cl)c3)C2)cc1 (stereo not drawn),"inconclusive: 35.5 µM [inhibitor, full curve]",–
O=C(COC(=O)c1ccc([N+](=O)[O-])s1)c1ccc[nH]1,"inconclusive: 31.6 µM [inhibitor, full curve]",–
CCOC(=O)C(Nc1ccc2ccccc2c1)C(=O)OCC,"inconclusive: 56.2 µM [inhibitor, partial curve]",–
S=c1[nH]nc(COc2ccccc2)n1-c1ccccc1,active: 12.6 µM,–
O=C(Nc1cccc2ccccc12)c1nn(C23CC4CC(CC(C4)C2)C3)cc1[N+](=O)[O-],"inconclusive: 31.6 µM [inhibitor, full curve]",–
CCn1c(SCC(=O)Nc2ccc(N(C)C)cc2)nnc1-c1ccco1,–,inactive: -6.32%
Cn1cnc(Sc2ncnc3nc[nH]c23)c1[N+](=O)[O-],active: 6.31 µM,–
NC(Cc1ccc2nsnc2c1)C(=O)O (stereo not drawn),active: 2.24 µM,–
COc1ccc(-c2nnc(SC)nc2-c2ccc(OC)c([N+](=O)[O-])c2)cc1[N+](=O)[O-],active: 2.51 µM,–
CCCCC[n+]1ccn(-c2nc3ccccc3nc2[N-]S(=O)(=O)c2ccc(C)cc2)c1,–,inactive: 17.2%
CSc1nnc2c(n1)OC1(Nc3ccccc3-2)C(=O)Nc2ccccc21 (stereo not drawn),"inconclusive: 25.1 µM [inhibitor, full curve]",–
CN(C)C(=O)C(Sc1ccc(S(=O)(=O)N2CCCC2)cn1)c1ccccc1 (stereo not drawn),"inconclusive: 89.1 µM [inhibitor, single point]",–
Cc1cc(N2C(=O)C=CC2=O)c([N+](=O)[O-])cc1C,active: 6.31 µM,–
O=C(CSc1ccc([N+](=O)[O-])cn1)Nc1nccs1,–,inactive: 1.34%
CC1CCN(CC(=O)Nc2ccc(S(=O)(=O)NC3CC3)cc2)CC1,active: 20 µM,–
CCOc1cc(N2CCOCC2)c(OCC)cc1NC(=O)CC12CC3CC(CC(C3)C1)C2,active: 44.7 µM,–
CC1C=CCC2C(=O)N(c3cccc(C(=O)Nc4ccc(Br)cc4)c3)C(=O)C12 (stereo not drawn),–,inactive: -14.7%
O=C(N/N=C/c1cccc(C(F)(F)F)c1)c1cc2c(s1)-c1ccccc1CC2,–,inactive: 21.5%
COc1ccc(N2CCN(C(=O)CCNS(=O)(=O)c3cccs3)CC2)cc1,–,inactive: -11%
O=C(OCc1nc2scc(-c3ccccc3)c2c(=O)[nH]1)c1cccc([N+](=O)[O-])c1,"inconclusive: 14.1 µM [inhibitor, partial curve]",–
COc1ccc(C(=O)NCCc2cnc[nH]2)cc1OC,"inconclusive: 25.1 µM [inhibitor, partial curve]",–
Cc1ccc(NC(=O)CCC(=O)N/N=C/c2cccnc2)cc1,–,inactive: -14.1%
CCOCCCn1c(SCC(=O)NC2CCCC2)nc2ccccc2c1=O,"inconclusive: 14.1 µM [inhibitor, partial curve, poor fit]",–

Structure (SMILES),Potency,"activity change, negative = inhibition"
Cc1ccccc1C(=O)N(Cc1ccc(N(C)C)cc1)Cc1ccco1,active: 44.7 µM,–
CCC(Oc1ccccc1)C(=O)NCCCN1CCOCC1 (stereo not drawn),–,inactive: -17.9%
CSCC[C@H](NC(=O)c1ccc2ccccc2c1)C(=O)N1CCC2(CC1)NCCc1[nH]cnc12,"inconclusive: 100 µM [inhibitor, single point]",–
COc1ccc(Nc2c3c(nc4ccc(NC(=O)/C=C/c5cc(OC)c(OC)c(OC)c5)cc24)CCCC3)cc1OC,"inconclusive: 14.1 µM [inhibitor, full curve]",–
Cc1occc1C(=O)N/N=C/C=C/c1ccc(N(C)C)cc1,"inconclusive: 50.1 µM [inhibitor, partial curve]",–
O=C(C1=C(O)C(=O)N(Cc2ccco2)C1c1cccnc1)c1cc2ccccc2o1 (stereo not drawn),"inconclusive: 56.2 µM [inhibitor, partial curve, poor fit]",–
O=C(Nc1ccccc1O)c1ccccc1O,"inconclusive: 2.51 µM [inhibitor, full curve]",–
CCOc1ccc(S(=O)(=O)N2CCCC(C(=O)N3CCOCC3)C2)cc1Cl (stereo not drawn),–,inactive: -5.63%
Cc1ccc(NC(=O)CN2C(=O)CCc3cc(S(=O)(=O)N4CCOCC4)ccc32)cc1N(C)C,"inconclusive: 56.2 µM [inhibitor, partial curve]",–
NC(=O)C1CCN(C(=O)COc2ccc(Nc3ccccc3)cc2)CC1,"inconclusive: 56.2 µM [inhibitor, partial curve]",–
COc1cc(CNCc2ccc(C)cc2)cc(OC)c1OC,active: 20 µM,–
O=C(CCc1nc2cccnc2n1Cc1cccs1)Nc1cccc(C(F)(F)F)c1,–,inactive: -21.9%
COc1cc(NC(=S)NCCc2ccccc2)c(OC)cc1NC(=O)C(C)C,"inconclusive: 79.4 µM [inhibitor, partial curve]",–
COCCN=c1scc(-c2ccco2)n1/N=C/c1ccc(O)c(O)c1O,active: 31.6 µM,–
COc1cccc(C2c3cc4c(cc3OC(C)(N3CCCC3)C2C)OCO4)c1O (stereo not drawn),"inconclusive: 56.2 µM [inhibitor, partial curve]",–
CCCOc1ccc(N/C=C/C(=O)c2ccc(OC)c(OC)c2)cc1,active: 28.2 µM,–
Oc1ccc(-c2nc3ccccn3c2NCc2ccc3c(c2)OCO3)cc1,"inconclusive: 56.2 µM [inhibitor, partial curve]",–
CCOc1cc(CC(=O)N[C@@H](CC(C)C)c2ccccc2N2CCCCC2)ccc1C(=O)O,–,inactive: -10.8%
COc1ccccc1NC(=O)N1c2ccccc2Sc2ccccc21,–,inactive: 4.15%
CC(=O)Oc1ccccc1N(C(C)=O)S(=O)(=O)c1cccc([N+](=O)[O-])c1,"inconclusive: 39.8 µM [inhibitor, partial curve]",–
CCOC(=O)C=Nc1c(N)n(C)c(=O)n(C)c1=O,"inconclusive: 35.5 µM [inhibitor, single point]",–
CC(Sc1nnnn1-c1ccccc1)C(=O)Nc1ccc(N2CCN(C)CC2)cc1 (stereo not drawn),"inconclusive: 63.1 µM [inhibitor, partial curve, poor fit]",–
COc1ccc(/C=N/Nc2ccc(C(F)(F)F)cc2[N+](=O)[O-])cc1O,active: 89.1 µM,–
CC(C)(C)Cc1nnc(NC(=O)Cc2ccc([N+](=O)[O-])cc2)s1,"inconclusive: 70.8 µM [inhibitor, single point]",–
Cc1c(NC(=O)Nc2ccc(Cl)c(Cl)c2)sc(=S)n1C,"inconclusive: 39.8 µM [inhibitor, full curve, poor fit]",–

Structure (SMILES),Potency,"activity change, negative = inhibition"
CC(=O)N1CCC2(CC1)OC(=O)C(C)=C2C(=O)Nc1cccc(Cl)c1C,–,inactive: -16.5%
CN(Cc1ccc2nonc2c1)Cc1nc(Cc2cccc(F)c2)no1,–,inactive: 39.1%
CCC(ONc1ccccc1C(F)(F)F)(C(=O)NN(C)C)c1ccccc1 (stereo not drawn),"inconclusive: 56.2 µM [inhibitor, partial curve]",–
C/C(=N\NC(N)=O)c1ccc(-n2ccnc2)cc1,–,inactive: -4.23%
COc1ccccc1-n1c(CNC(=O)c2cccc([N+](=O)[O-])c2C)n[nH]c1=S,active: 20 µM,–
O=C(C1CC(c2ccccc2O)=NO1)N1CCCCC1 (stereo not drawn),active: 89.1 µM,–
COc1cccc(CNC(=O)C2CCN(C(=O)N3CCOc4ccc(Cl)cc43)CC2)c1OC,"inconclusive: 79.4 µM [inhibitor, partial curve]",–
CC1=C(C(=O)Nc2ccccc2)C(c2cccnc2)n2nc(SCc3ccccc3F)nc2N1 (stereo not drawn),–,inactive: -8.53%
Cc1nc2c(C(=O)NCc3ccccc3)cnn2c(C)c1Cc1ccc(F)cc1,"inconclusive: 100 µM [inhibitor, single point]",–
Cc1cc(C)c2nc(-c3ccccn3)cc(C(=O)Nc3ccc(S(=O)(=O)Nc4onc(C)c4C)cc3)c2c1,active: 56.2 µM,–
COc1cc(C(=S)N2CCOCC2)ccc1OC(=O)c1ccc([N+](=O)[O-])cc1[N+](=O)[O-],"inconclusive: 31.6 µM [inhibitor, full curve, poor fit]",–
CN1CCc2c(sc(/N=C/c3cc(C(C)(C)C)ccc3O)c2C#N)C1,"inconclusive: 22.4 µM [inhibitor, partial curve]",–
CC(=O)Nc1ccc(OCc2cccc(C3Nc4ccccc4C(=O)N3Cc3ccco3)c2)cc1 (stereo not drawn),active: 89.1 µM,–
O=C(O)Cn1c(-c2cscn2)nc2ccccc21,active: 15.8 µM,–
Fc1ccc(/C=N/N2CCN(Cc3ccccc3)CC2)cc1,"inconclusive: 31.6 µM [inhibitor, full curve]",–
Cc1ccc(-n2c(=O)c3c(c4cc(C)ccc4n3C)n(CC(=O)Nc3c(C)cccc3C)c2=O)cc1,–,inactive: -15.9%
COc1cc(NCCCCCCCN)c2ncccc2c1,"inconclusive: 89.1 µM [inhibitor, partial curve]",–
Cc1ccc(O)c(N=NC2=C(O)CC(C)(C)CC2=O)c1,active: 56.2 µM,–
CCOc1ccccc1CN1CCN(Cc2[nH]c3ccccc3c2C)CC1CCO (stereo not drawn),"inconclusive: 35.5 µM [inhibitor, full curve, poor fit]",–
COc1ccc(-n2nc([N+](=O)[O-])c(=NCc3ccc4c(c3)OCO4)n2O)cc1,"inconclusive: 28.2 µM [inhibitor, partial curve]",–
OC(CNCC(c1ccco1)N1CCCCC1)c1ccccc1 (stereo not drawn),active: 1.12 µM,–
O=C(c1cccs1)c1no[n+]([O-])c1C(=O)c1cccs1,"inconclusive: 10 µM [inhibitor, full curve, poor fit]",–
O=C(CSc1n[nH]c(=O)[nH]c1=O)Nc1ccc2c(c1)C(=O)c1ccccc1C2=O,"inconclusive: 3.16 µM [inhibitor, partial curve]",–
